Reference: PubChem BioAssay AID624417 (National Center for Advancing Translational Sciences (NCATS), 2012)
Where “and” joins values, the source holds several entries; their conditions need not be identical. Equal values may be shown once. The whole screen tested about 410,000 compounds, of which about 6,400 (1.6%) were called active. The inconclusive results got no clear call from the source; some entries with a clear call stand among them for comparison. Calls come from the whole dose curve; as a rule, active = well fitted inhibition curve with a large enough effect; inconclusive = small, poorly fitted or top-dose-only effect; inactive = no such curve, though single readings can be large or run the other way. Potencies beside an inconclusive call are fits to weak or partial responses and may not hold up.

biological target: Glucagon-like peptide 1 receptor (Homo sapiens) (UniProt P43220); assay: qHTS of GLP-1 Receptor Inverse Agonists (Inhibition Mode); settings: HEK293 GLP-1R CRE-luciferase, luminescence, 24 h, GLP-1R form is constitutively active; activity change, negative = inhibition: at 38.3 µM (top of the series) unless noted; note: nearly all actives have a fitted effect of over 55% in size
Sequence of UniProt P43220 (P43220 whole entry, looked up): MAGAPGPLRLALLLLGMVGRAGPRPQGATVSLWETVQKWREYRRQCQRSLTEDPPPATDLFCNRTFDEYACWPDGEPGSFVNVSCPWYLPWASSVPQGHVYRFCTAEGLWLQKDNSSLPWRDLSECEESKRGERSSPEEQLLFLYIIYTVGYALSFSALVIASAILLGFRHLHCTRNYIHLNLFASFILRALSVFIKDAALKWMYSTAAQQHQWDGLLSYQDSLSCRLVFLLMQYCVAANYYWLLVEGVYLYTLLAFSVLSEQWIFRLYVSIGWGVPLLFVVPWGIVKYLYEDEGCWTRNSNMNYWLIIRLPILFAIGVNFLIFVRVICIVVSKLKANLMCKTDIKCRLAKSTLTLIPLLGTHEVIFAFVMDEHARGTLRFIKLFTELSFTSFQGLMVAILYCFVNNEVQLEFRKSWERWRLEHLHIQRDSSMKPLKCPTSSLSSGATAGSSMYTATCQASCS
How it was run: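 HEK293 cells stably co-expressing constitutively active GLP-1R and a cAMP-responsive luciferase reporter were seeded in DMEM with 10% Nu serum, given compounds after 12 h, and incubated 24 h at 37 deg C. Luminescence was then read.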
% is set by controls: 0 for no effect and ±100 for the full control effect; potency is the fitted concentration of half-maximal effect; tags give direction and shape of the fitted curve.

Structure (SMILES) | Potency | activity change, negative = inhibition
Cc1ccc(C(=O)Nc2cccc(C(=O)O)c2)cc1 | inconclusive: 1.12 µM [inhibitor, full curve, poor fit] | –
CCCOc1ccccc1C1CC(=O)Nc2cc3c(cc21)OCCO3 (stereo unspecified) | inconclusive: 0.891 µM [inhibitor, full curve, poor fit] | –
O=S(=O)(c1ccccc1)N(c1ccccc1)S(=O)(=O)c1ccccc1 | inconclusive: 8.91 µM [inhibitor, partial curve, poor fit] | –
CCOc1ccc(CCN2C(=S)N([C@@H](CC(C)C)CN3CCCC3CN3C(=S)NC[C@@H]3CC(C)C)C[C@@H]2Cc2ccc(O)cc2)cc1 (stereo partly specified) | inconclusive: 12.6 µM [inhibitor, single point] | –
COc1ccc(CNC(=O)Cc2coc3ccc(C(C)C)cc23)cc1 | inconclusive: 8.91 µM [inhibitor, partial curve, poor fit] | –
COc1ccccc1CC(=O)Nc1ccc(S(=O)(=O)N2CC(C)CC(C)C2)cc1 (stereo unspecified) | inconclusive: 11.2 µM [inhibitor, partial curve, poor fit] | –
CCOc1ccccc1CNC(=O)CSc1n[nH]c(-c2ccccc2Cl)n1 | – | inactive: -17.7%
Cc1cc(C)c(S(=O)(=O)NCC(c2ccc(N(C)C)cc2)N2CCc3ccccc32)c(C)c1 (stereo unspecified) | active: 2 µM | –
Cc1ccccc1C(=O)NNC(=S)NC(=O)c1ccc(Cl)cc1Cl | inconclusive: 17.8 µM [inhibitor, partial curve, poor fit] | –
CN(C)c1ccc(CNc2nc(-c3ccccc3)nn2S(C)(=O)=O)cc1 | inconclusive: 4.47 µM [inhibitor, full curve, poor fit] | –
C=CCn1c(-c2ccccn2)n[nH]c1=S | – | inactive: 24.8%
COC(=O)[C@@H](NC(=O)N1CCC(Cc2ccccc2)CC1)C(C)C | inconclusive: 10 µM [inhibitor, partial curve, poor fit] | –
Cc1cc(Nc2cc(Cl)ccc2C)n2nc(Cc3ccccc3)nc2n1 | – | inactive: -10.6%
CCOC(=O)c1ccc(Nc2nc(C(=O)OCC)nc3ccccc23)cc1 | – | inconclusive: -30.5% [inhibitor]
O=C(CN1C(=O)COc2ccc(S(=O)(=O)N3CCCCC3)cc21)NCc1ccccc1Cl | inconclusive: 10 µM [inhibitor, partial curve, poor fit] and inconclusive: 8.91 µM [inhibitor, single point] | –
Cc1cc(=O)oc2cc(NC(=O)CN3C(=O)NC(C)(c4ccccc4)C3=O)ccc12 (stereo unspecified) | inconclusive: 7.08 µM [inhibitor, partial curve] | –
COc1ccc(Cl)cc1NC(=O)Nc1ccc(C(=O)N2CCCC2)cc1 | inconclusive: 7.94 µM [inhibitor, partial curve, poor fit] | –
CSc1ccc(CN(C)Cc2cc(=O)oc3c(C)c(C)ccc23)cc1 | inconclusive: 28.2 µM [inhibitor, single point] | –
Cc1ccc(-c2cc(C(=O)N3CCCC(C(F)(F)F)C3)c3ccccc3n2)o1 (stereo unspecified) | inconclusive: 28.2 µM [inhibitor, single point] | –
O=C(CP(=O)(c1ccccc1)c1ccccc1)Nc1nc2ccccc2s1 | inconclusive: 5.62 µM [inhibitor, full curve, poor fit] | –
CC(C)COc1ccc(S(=O)(=O)NNC(=O)c2cc3ccccc3o2)cc1 | inconclusive: 20 µM [inhibitor, single point] | –

Structure (SMILES) | Potency | activity change, negative = inhibition
CCCN(CCC)S(=O)(=O)c1ccc(C(=O)O)cc1 | – | inactive: 7.88%
CCOC(=O)C1CCCN(C(=O)c2ccc3c(c2)N(Cc2cccc(Cl)c2)C(=O)c2ccccc2S3(=O)=O)C1 (stereo unspecified) | – | inactive: -14.3%
c1ccc(CN2CCCC3(CCCN(Cc4nc(CC5CC5)no4)C3)C2)cc1 (stereo unspecified) | inconclusive: 12.6 µM [inhibitor, partial curve, poor fit] | –
CCOC(=O)c1c(C)[nH]c(C)c1C(=O)COC(=O)c1sccc1C | inconclusive: 28.2 µM [inhibitor, single point] | –
CC1=C(C(=O)OCc2ccccc2)C(c2ccc(Cl)cc2)NC(=O)N1CCCC(=O)O (stereo unspecified) | – | inactive: 8.17%
COc1ccc(C)cc1NC(=O)CN1C(=O)COc2ccc(S(=O)(=O)N3CCCCCC3)cc21 | inconclusive: 1.58 µM [inhibitor, full curve, poor fit] | –
Cc1ccc(C(=O)Nc2ccc3c(c2)OCO3)cc1S(=O)(=O)N1CCCCC1 | inconclusive: 7.94 µM [inhibitor, partial curve, poor fit] | –
CC1(c2nc3ccccc3[nH]2)CCC2=Nc3ccccc3CN21 (stereo unspecified) | – | inactive: 6.84%
CCOC(=O)C1=CCN(S(=O)(=O)c2cccc(Cl)c2)C1c1ccccc1 (stereo unspecified) | inconclusive: 10 µM [inhibitor, partial curve] | –
O=C(CCn1cnc(-c2ccccc2)c1-c1ccccc1)N/N=C/c1ccccc1O | inconclusive: 2.82 µM [inhibitor, full curve] | –
O=C(O)C1C2C=CC(C2)C1C(=O)NCc1cccc(Cl)c1 (stereo unspecified) | inconclusive: 22.4 µM [inhibitor, single point] | –
COc1ccc(OC)c(-c2csc(NC(=O)Cc3ccccc3F)n2)c1 | inconclusive: 14.1 µM [inhibitor, partial curve, poor fit] | –
O=C(COc1ccc(F)cc1)Nc1nccs1 | inconclusive: 28.2 µM [inhibitor, single point] | –
Oc1ccccc1Oc1c(F)c(F)nc(N2CCCC2)c1F | inconclusive: 12.6 µM [inhibitor, partial curve, poor fit] | –
COc1cccc(CNc2nc3ccccc3n2C(C)C)c1O | inconclusive: 10 µM [inhibitor, single point] | –
CCOc1ccc(/C=N/n2cc(-c3ccccc3)[nH]c2=S)cc1 | inconclusive: 2.82 µM [inhibitor, full curve, poor fit] | –
CC(NC(=O)C(=O)NCCC1=CCCCC1)c1ccccc1 (stereo unspecified) | inconclusive: 2.51 µM [inhibitor, full curve, poor fit] | –
C/C(=N\N1CCN(Cc2ccc(Cl)cc2)CC1)c1ccc(F)cc1 | inconclusive: 1.12 µM [inhibitor, full curve, poor fit] | –
Cc1ccc(Cc2c(-c3cccc(Cl)c3)nc3ccc(Cl)cn23)cc1 | inconclusive: 31.6 µM [inhibitor, single point] | –
CCOc1ccc(CN2CCNC(=O)C2CC(=O)NCc2cc(C)n(C)n2)cc1 (stereo unspecified) | – | inactive: 6.28%
Cc1cc(C(C)(C)C)oc1C(=O)N(CC(=O)NC1CCCC1)Cc1ccccc1 | inconclusive: 7.08 µM [inhibitor, partial curve, poor fit] | –

Structure (SMILES) | Potency | activity change, negative = inhibition
O=C(Cn1cnc2c(cnn2-c2ccc(F)cc2)c1=O)NCc1ccco1 | inconclusive: 2.24 µM [inhibitor, full curve, poor fit] | –
O=C(Nc1c(-c2ccc(F)cc2)nc2ccccn12)c1ccc(F)cc1 | inconclusive: 10 µM [inhibitor, partial curve, poor fit] | –
CCCn1c(=O)c2ccccc2n2c(SCCOc3ccc(Cl)cc3)nnc12 | – | inactive: 29.7%
CCOc1ccc(NC(=O)C(C)Oc2ccccc2C(=O)Nc2ccc(C)c(Cl)c2)cc1 (stereo unspecified) | inconclusive: 11.2 µM [inhibitor, partial curve, poor fit] | –
Cc1ccc(S(=O)(=O)N2CCN(C3CC4CCC3C4)CC2)cc1 (stereo unspecified) | inconclusive: 3.16 µM [inhibitor, full curve] | –
CCCCn1nnnc1C(c1ccc(OC)cc1)N1CCN(C/C=C/c2ccccc2)CC1 (stereo unspecified) | inconclusive: 10 µM [inhibitor, single point] | –
O=C(Nc1ccc2c(c1)OCO2)C1CCCN(S(=O)(=O)Cc2ccccc2)C1 (stereo unspecified) | inconclusive: 11.2 µM [inhibitor, partial curve, poor fit] | –
Cc1ncccc1C(=O)N1CCCC(c2cc(C(=O)Nc3ccc(C(C)(C)C)cc3)no2)C1 (stereo unspecified) | inconclusive: 11.2 µM [inhibitor, partial curve, poor fit] | –
COc1ccc(Cc2nc(C(=O)Nc3ccccc3)cs2)cc1 | inconclusive: 31.6 µM [inhibitor, single point] | –
Cc1cccc(CN2C(=O)c3ccccc3Sc3ccc(C(=O)NCCc4ccccc4)cc32)c1 | inconclusive: 12.6 µM [inhibitor, partial curve, poor fit] | –
CC(=O)N/N=C(\C)c1cccc(C(F)(F)F)c1 | – | inactive: 4.78%
CC(CCc1ccccc1)NC(=O)CN(C)Cc1ccccc1F (stereo unspecified) | inconclusive: 11.2 µM [inhibitor, partial curve] | –
CCOC(=O)c1ccc(N2CCCCC2)c(NS(=O)(=O)c2ccc(C)cc2)c1 | inconclusive: 28.2 µM [inhibitor, single point] | –
CCN(CC)S(=O)(=O)c1cc(NS(=O)(=O)c2cccc(Cl)c2Cl)ccc1C | inconclusive: 2 µM [inhibitor, full curve] | –
CCOc1ccccc1/C=N/NC(=O)Cc1csc(Nc2cccc(C(F)(F)F)c2)n1 | inconclusive: 10 µM [inhibitor, partial curve, poor fit] | –
CCCCC/C=C/C1=CC(=O)C[C@H](c2ccc(OC)cc2)C1 | inconclusive: 14.1 µM [inhibitor, single point] | –
COc1ccc(NC(=O)CC2C(=O)NCCN2C(=O)Nc2ccc(C(F)(F)F)cc2)cc1 (stereo unspecified) | inconclusive: 10 µM [inhibitor, partial curve, poor fit] | –
CC(=O)N1CCN(S(=O)(=O)c2cccc(C(=O)OCC(=O)N(Cc3ccccc3)C(C)(C)C)c2)CC1 | inconclusive: 28.2 µM [inhibitor, single point] | –
O=C(CSc1nc2ccc(NC(=O)CSc3nnnn3-c3ccccc3)cc2s1)Nc1ccccc1 | inconclusive: 8.91 µM [inhibitor, partial curve, poor fit] | –
